According to PubChem BioAssay AID1347120 (National Center for Advancing Translational Sciences (NCATS), 2019):
In all, about 390,000 compounds went through this assay and about 930 (0.24%) were called active. This list was built around the results that the source calls inconclusive (neither active nor inactive); the mix of calls is not that of the screen. Calls come from the whole dose curve; as a rule, active = well fitted activation curve with a large enough effect; inconclusive = small, poorly fitted or top-dose-only effect; inactive = no such curve, though single readings can be large or run the other way. A potency beside an inconclusive call is a rough fit, not a confirmed value. More than one record can exist for a structure, and the calls need not agree.

Assay: qHTS for Suppressors of FUS Proteinopathy: Primary screen using FUS-linked yeast assay; note: nearly all actives have a fitted effect of over 55% in size;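 for growth rescue (activation): plate controls were DMSO vehicle for no effect and reference control for full effect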
Settings: S. cerevisiae FUS-expressing, OD600, 24 h; Potency: growth rescue; growth rescue (activation): at 76.6 µM (top of the series)
Outline: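 Galactose (2%) drives FUS expression in yeast precultured in raffinose; seeding density OD 0.005. Test compounds incubated 24hr at 30C and 99% humidity before absorbance at 600 nm was measured.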
Potency is the fitted concentration of half-maximal effect; tags give direction and shape of the fitted curve.

Row | Compound | Potency | growth rescue (activation)
1 | CCOC(=O)c1scc(-c2ccc(C)cc2)c1S(=O)(=O)Nc1cc(Cl)ccc1OC | inactive | –
2 | Cc1cc(C)c(N2C(=O)CCCC2=O)c(Cl)c1 | inactive | –
3 | COc1ccccc1N=Nc1ccc(N)c(C)c1 | inactive | –
4 | COc1ccc(CC(=O)Nc2ccc(C)c(S(=O)(=O)N3CCCCCC3)c2)cc1 | inconclusive: 44.7 µM [activator, single point] | –
5 | Cc1ccc(S(=O)(=O)N2CCC[C@H]2C(=O)OCC(=O)Nc2ccc3c(c2)OCO3)cc1 | inconclusive: 22.4 µM [activator, single point] | –
6 | COCCCN=C1NN=C(c2cc(C)n(-c3ccccc3F)c2C)CS1 | inconclusive: 39.8 µM [activator, single point] | –
7 | CCOC(=O)c1cnc(SCC(=O)Nc2ccc(NC(=O)CC)c(OC)c2)nc1N | inconclusive: 44.7 µM [activator, single point] | –
8 | COc1ccc(-n2c(SCC(=O)NCC3CCCO3)nnc2-c2ccncc2)cc1 (stereo not drawn) | inactive | –
9 | CCCCn1c(N)c(N(CCC(C)C)C(=O)CSc2nnc(Nc3ccccc3)s2)c(=O)[nH]c1=O | inconclusive: 17.8 µM [activator, partial curve, poor fit] | –
10 | COc1ccc(C2(c3ccc(OC)cc3)NC(=O)N(CC(=O)Nc3cc(C)on3)C2=O)cc1 | inconclusive: 25.1 µM [activator, partial curve, poor fit] | –
11 | CCc1nnc2n1N=C(c1ccc(Cl)cc1)CS2 | inactive | –
12 | CC(C)C[C@@H](CN1CCCC1CN1C(=S)NC[C@@H]1Cc1ccccc1)N1C[C@H](Cc2ccc(O)cc2)N(CC2CCCCC2)C1=S (stereo partly drawn) | inconclusive: 50.1 µM [activator, single point] | –
13 | O=c1cc(NC2CCCCC2)c2ccccc2o1 | inconclusive: 31.6 µM [activator, partial curve, poor fit] | –
14 | CC1(NC(=O)CC(c2ccccc2)(c2ccccc2)c2ccccc2)CCN(CCCc2ccccc2)C1=O (stereo not drawn) | inconclusive: 35.5 µM [activator, single point] | –
15 | Cc1ccc(CN2CCC[C@]3(N[C@H](c4ccccc4)[C@@H]4C(=O)N(Cc5ccccc5)C(=O)[C@@H]43)C2=O)cc1 | inconclusive: 31.6 µM [activator, single point] | –
16 | CCCn1c(SCC(O)c2cccc(OC)c2)nc2ccccc21 (stereo not drawn) | inactive | –
17 | CC(=O)c1cccc(Nc2nc(-c3cccc([N+](=O)[O-])c3)cs2)c1 | inactive | –
18 | Cc1ccc(C(=O)NCC(=O)OCc2csc(-c3ccccc3)n2)cc1 | inactive | –
19 | COc1ccc(CNC(=O)C2CCN(c3nc4ccc(C)cc4[nH]3)CC2)cc1 | inactive | –
20 | CCn1c2c(c(=O)n3ncc(C(=O)Nc4cccc(Cl)c4C)c13)CN(Cc1ccc(OC)cc1)CC2 | inconclusive: 35.5 µM [activator, single point] | –
21 | O=[N+]([O-])c1cccc(COc2ncnc3cc([N+](=O)[O-])ccc23)c1 | inactive | –
22 | O=c1oc2c(CN3CCOCC3)c(O)ccc2cc1-c1ccc(Cl)cc1 | inactive | –
23 | CCn1c(=O)c2cc(C(=O)NC3CCCCCC3)sc2c2ccccc21 | inactive | –

Row | Compound | Potency | growth rescue (activation)
24 | CC(NC(=O)c1ccc2c(c1)N(Cc1ccc(Cl)cc1)C(=O)c1ccccc1S2(=O)=O)c1ccccc1 (stereo not drawn) | inconclusive: 17.8 µM [activator, partial curve, poor fit] | –
25 | CCOC(=O)N1CCN(C(=O)CCc2ccc(S(=O)(=O)NC(C)(C)C)cc2)CC1 | inactive | –
26 | O=C(CNS(=O)(=O)c1c(Cl)cccc1Cl)N1CCCCCC1 | inconclusive: 2 µM [activator, full curve, poor fit] | –
27 | CCOC(=O)[C@@]12CCCC=C1N(CCc1ccc(Cl)cc1)C(=O)[C@H]2CC(=O)N1CCCC1 | inconclusive: 50.1 µM [activator, single point] | –
28 | OCCC#Cc1ccc(N2C(c3ccsc3)=Cc3ccc(F)cc3C2c2c[nH]c3ccccc23)cc1 (stereo not drawn) | inconclusive: 50.1 µM [activator, single point] | –
29 | Cc1ccc(S(=O)(=O)N(C)C)cc1NC(=O)c1cc(-c2ccncc2)nc2ccccc12 | inconclusive: 28.2 µM [activator, single point] | –
30 | COc1ccc(N(Cc2cc3ccc(C)cc3[nH]c2=O)C(=O)C2CCCO2)cc1 (stereo not drawn) | inactive | –
31 | N#CC(C(=S)Nc1ccccc1)c1nc2ccccc2[nH]1 (stereo not drawn) | inactive | –
32 | Clc1ccc(-n2c(Cc3cccs3)nnc2SC/C=C/c2ccccc2)cc1 | inactive | –
33 | COc1ccc(CNC(=O)CSc2nc3ccsc3c(=O)n2Cc2ccccc2Cl)cc1 | inactive | –
34 | Cc1nc2cc(NS(=O)(=O)c3c(C)c(C)cc(C)c3C)ccc2s1 | inconclusive: 50.1 µM [activator, single point] | –
35 | CCCCCN(C(=O)CCC(=O)OCCOc1ccc(OCC)cc1)c1c(N)n(CCCC)c(=O)[nH]c1=O | inconclusive: 22.4 µM [activator, partial curve, poor fit] | –
36 | Cc1ccc(NC(=O)Cn2ncn3c(cc4ccccc43)c2=O)c(C)c1 | active: 31.6 µM | –
37 | Cc1ccc(OCC(=O)N/N=C/C=C/c2ccco2)cc1 | inconclusive: 8.91 µM [activator, partial curve] | –
38 | CCN(CC)S(=O)(=O)c1ccc(NC(=O)CCc2c(C)nc3cc(-c4ccc(Cl)cc4)nn3c2C)cc1 | inconclusive: 28.2 µM [activator, single point] | –
39 | Cn1c(=O)c2c(nc(CN3CCN(C(c4ccccc4)c4ccccc4)CC3)n2CC(N)=O)n(C)c1=O | – | inconclusive: 27.1% [activator]
40 | CCCCSc1nnc(-c2ccc(C)cc2)n1C | inactive | –
41 | O=C(O)CN1C(=O)SC(Nc2ccccc2)C1=O (stereo not drawn) | inconclusive: 11.2 µM [activator, single point] | –
42 | CC(C)(C)C(=O)N1CCC2CC1c1cc(-c3ccc4c(c3)OCO4)ccc12 (stereo not drawn) | inconclusive: 17.8 µM [activator, partial curve] | –
43 | CN(C(=O)c1ccc(NC(=O)Cc2ccc(NC(=O)C3CCN(C(=O)CCc4ccccc4)CC3)cc2)cc1)C1CCCC1 | inconclusive: 25.1 µM [activator, single point] | –
44 | CC1CCCN(C(=O)CSCC(=O)Nc2nc(-c3cccs3)cs2)C1 (stereo not drawn) | inactive | –
45 | Cc1ccc(C(=O)NCC#N)cc1 | inactive | –
46 | Cc1c(C(=O)Nc2ccc(N3CCOCC3)cc2)oc2ccccc12 | inactive | –

Row | Compound | Potency | growth rescue (activation)
47 | CCOc1ccc(CNC(=O)c2cnc3sc(N(CC)CC)nn3c2=O)cc1OC | inactive | –
48 | N#C/C(=C/c1cn(-c2ccccc2)nc1-c1cccc(S(=O)(=O)N2CCCC2)c1)C(=O)NCc1ccco1 | inconclusive: 8.91 µM [activator, partial curve] | –
49 | CC1CC1C(=O)Nc1nc(-c2ccccc2)cs1 (stereo not drawn) | inactive | –
50 | CC1=CC2=NC(=O)CC(C)(C(=O)N(CC(=O)NC(C)(C)C)C3CCCC3)N2C=C1 (stereo not drawn) | inconclusive: 6.31 µM [activator, single point] | –
51 | CCCn1c(NC(=O)C2CCN(S(=O)(=O)c3cccs3)CC2)nc2ccccc21 | inconclusive: 35.5 µM [activator, single point] | –
52 | CC(=O)c1c(N2CCN(c3ccccc3)CC2)nc(=S)n(-c2ccccc2)c1C | inconclusive: 39.8 µM [activator, single point] | –
53 | O=C(CCC(=O)N1CCN(S(=O)(=O)c2ccc3ccccc3c2)CC1)Nc1cc(Cl)cc(Cl)c1 | inconclusive: 10 µM [activator, full curve] | –
54 | COC(=O)[C@]12C[C@H](CC(=O)NCC34CC5CC(CC(C5)C3)C4)C(=O)N(CCC3=CCCCC3)C1=C[C@H](C(C)C)O[C@@H]2C1CC1 | inconclusive: 2 µM [activator, full curve] | –
55 | COc1ccc(OC)c(S(=O)(=O)N2CCN(C(=O)c3cc(C4CC4)nn3-c3ccccc3)CC2)c1 | inconclusive: 3.98 µM [activator, full curve] | –
56 | CCCCSCc1cc(C(=O)O)oc1C(C)(C)C | inactive | –
57 | Cc1ccccc1C(=O)NCC(c1cccnc1)N1CCc2ccccc21 (stereo not drawn) | inconclusive: 50.1 µM [activator, single point] | –
58 | COc1ccc(-c2nc3ccc(Cl)cn3c2Cc2ccccc2)cc1OC | inactive | –
59 | COc1ccc(C(=O)NC(NC(=S)Nc2ccc(S(N)(=O)=O)cc2)C(Cl)(Cl)Cl)cc1 (stereo not drawn) | inconclusive: 35.5 µM [activator, single point] | –
60 | COc1ccc(NC(=O)C2(c3cccs3)CCOCC2)cc1Cl | inactive | –
61 | CCOC(=O)c1c(C)sc(-c2c(-c3ccc4c(c3)OCCO4)[nH]c3c2c(=O)[nH]c(=O)n3C)c1O | inactive | –
62 | COc1ccc2nc3sc(C(=O)Nc4cc(Cl)c(OC)cc4OC)cc3cc2c1 | inactive | –
63 | S=C(Nc1ccc(N2CCOCC2)cc1)Nc1ccc2nc(-c3ccco3)c(-c3ccco3)nc2c1 | inconclusive: 11.2 µM [activator, partial curve, poor fit] | –
64 | COCCCNC(=O)/C=C/c1cccc(Cl)c1 | inactive | –
65 | CCOc1cc(N(CC)CC)ccc1/C=C(/C#N)c1nc2ccccc2[nH]1 | inconclusive: 31.6 µM [activator, single point] | –
66 | CCOC(=O)c1c(-c2ccc3ccccc3c2)csc1NC(=O)CCCC(=O)O | inconclusive: 50.1 µM [activator, single point] | –
67 | C=CCN1C(=O)[C@@H](CC(=O)NCc2cccc(C(F)(F)F)c2)[C@]2(C(=O)OCC)CCCCC/C=C/12 | inconclusive: 15.8 µM [activator, partial curve, poor fit] | –
68 | CCOc1ccccc1N(CC(=O)Nc1ccc(OC)cc1OC)S(=O)(=O)c1ccccc1 | inconclusive: 22.4 µM [activator, single point] | –
